# In the supplement of paper PMC3334620:
# The full ranking holds about 33,000 sequences; the median of “E-score (-0.5 to 0.5)” is about -0.035, and the highest 2% start at about 0.34. The list shows a part of the results.
# Molecular target: T1, Mot3 (UniProt P54785)
# T1 sequence: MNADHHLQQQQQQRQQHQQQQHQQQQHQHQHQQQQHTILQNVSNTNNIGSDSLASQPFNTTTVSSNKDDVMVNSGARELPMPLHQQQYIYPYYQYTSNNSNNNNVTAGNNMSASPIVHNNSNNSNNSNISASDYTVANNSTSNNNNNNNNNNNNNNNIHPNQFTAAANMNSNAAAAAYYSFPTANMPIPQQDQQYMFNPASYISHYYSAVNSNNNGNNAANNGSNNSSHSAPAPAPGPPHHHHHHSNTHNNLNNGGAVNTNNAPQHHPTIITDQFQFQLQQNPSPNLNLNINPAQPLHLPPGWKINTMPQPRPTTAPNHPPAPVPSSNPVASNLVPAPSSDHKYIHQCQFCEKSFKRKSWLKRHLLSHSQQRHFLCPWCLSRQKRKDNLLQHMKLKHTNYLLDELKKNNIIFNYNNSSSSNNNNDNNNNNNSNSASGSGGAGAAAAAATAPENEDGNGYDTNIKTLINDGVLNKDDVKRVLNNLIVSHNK
# Experiment: PBM E-score (8-mer binding enrichment) (E-score (-0.5 to 0.5)); higher = stronger / more preferred TF binding; most listed sequences are background and not binding sites
# Conditions: protein concentration: 200 nM; construct: GST-full length
# In short: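 Full-length yeast transcription factors or their DNA-binding domains, GST-tagged and expressed with PURExpress, were applied at about 100-200 nM to universal all-10-mer Agilent arrays. These arrays had been made double-stranded by primer extension on fresh or once-stripped slides. Detection used fluorescent anti-GST, normalisation used masliner, and E-scores for ungapped eight-base words pooled with reverse complements came from the Universal PBM Analysis Suite.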
row,Sequence,PBM E-score
1,GTCTCACA,-0.0936
2,AACCGGCG,0.0787
3,GATTGGAA,-0.00014
4,GATACTAA,0.0182
5,AAGTCATA,-0.0524
6,CCGTTTCA,-0.123
7,ACAGGTTG,0.181
8,CGCATCTC,-0.0332
9,AGCACTCG,-0.348
10,AACTTTGA,-0.016
11,AGGAAAGA,0.282
12,ACCCGTCG,-0.0764
13,AGTCCTGG,-0.278
14,CCATCCTC,-0.233
15,CAAAGATG,0.0103
16,TCCTCGCA,-0.141
17,CATTTCGG,-0.063
18,CTGCTGCA,-0.0263
19,CGCAGAAC,0.012
20,CAGCGACA,-0.0471
21,CGCGGAAA,-0.07
22,GAAACACA,0.233
23,GACCCATC,-0.217
24,AGTTTGAC,0.161
25,ATCAAGAC,0.0321

row,Sequence,PBM E-score
1,ACGGATAA,-0.0413
2,CCACTTCC,-0.116
3,GCCTCAAC,0.109
4,TAATGCCA,0.121
5,GAATCAAA,-0.0706
6,ATACTTAC,0.242
7,CGATGCAG,-0.323
8,ACTTCCTG,-0.0437
9,TCTATCCA,-0.12
10,AGTTGTCA,-0.0144
11,TAGACACA,0.105
12,ACTTATCA,-0.0722
13,ATAAGGGG,-0.0678
14,AGGTGTTC,0.139
15,CCTACCGC,0.0945
16,AGCTATTG,0.0615
17,CAGGGGGG,-0.214
18,GCGATATA,-0.0247
19,AAGAAGAA,0.172
20,CGGAACAC,0.0144
21,AGTCGTTG,-0.195
22,ATACGCGC,0.236
23,CAGAGGGA,-0.123
24,ATGTCGCA,0.0417
25,GAGATGGC,-0.0348

row,Sequence,PBM E-score
1,GTCCAGAA,0.097
2,AAAATGGC,0.0705
3,CACAGTTC,0.00017
4,CACTTTCG,-0.0675
5,CGTCACCC,-0.109
6,CATAGCGA,0.0868
7,GTCCCTGA,-0.064
8,AGGTGGGG,-0.125
9,CTAGGAAA,0.246
10,AGGGACGA,-0.113
11,CAAGTAGA,-0.0203
12,CCGGCAAC,-0.223
13,TGCATTAA,0.115
14,TCTTACCA,-0.0433
15,GCGGCGGA,-0.126
16,GAGCTATC,-0.176
17,CCTTATGC,-0.0846
18,ATGACTGG,-0.187
19,CCGTCCCG,-0.264
20,ACTTACCA,-0.0176
21,CCTTGGGA,-0.179
22,AGTCGAGG,-0.133
23,TAATAGAA,0.221
24,CGGGCTAA,-0.149
25,ACCCCGAC,-0.234

row,Sequence,PBM E-score
1,AATCCCTA,-0.0653
2,AGGGCTAG,-0.266
3,ACTATCCT,-0.243
4,AGCCTGGA,-0.277
5,GAACGAAC,-0.0739
6,AAAGTCCA,-0.091
7,ATATAGAA,0.11
8,GTAGACTA,-0.0363
9,AGGGTCAG,-0.207
10,AGACAGAC,0.00927
11,CTCAACTA,0.0353
12,GACATTAC,0.133
13,AGGCCGAA,-0.138
14,ATGATGAA,0.0122
15,GGCGATAA,-0.239
16,CACATCCC,-0.0312
17,AGAAGCAG,-0.0902
18,CATAGTGG,-0.0206
19,AGATCGTC,-0.179
20,TATCGCGA,-0.0761
21,ACCAACTG,-0.14
22,ACAAGGTG,0.135
23,GACGAGGA,-0.0975
24,CTCTGGTA,-0.106
25,AGCCGTGG,-0.137

row,Sequence,PBM E-score
1,GATACAAC,0.0758
2,ATTTACGG,0.132
3,GACTCAAC,0.0921
4,ATTTTGAA,-0.00196
5,AGCAGATA,-0.23
6,CTTGCATA,-0.0488
7,CACCGTCG,-0.113
8,TGCATGAA,0.0432
9,CCACTAAC,0.0767
10,CCATTTAC,0.204
11,ATTTAGCC,0.00989
12,ACCCAGCG,-0.0802
13,AAGGGATT,-0.123
14,ACTGAGGA,-0.0208
15,AAAGAGGT,0.0391
16,ACCACTAT,-0.121
17,CGGCACGC,-0.0562
18,TAGCGGAA,-0.15
19,ATCCACTG,-0.103
20,ACAGCTAG,-0.0713
21,ACCTTGCT,-0.0444
22,ATATGGAT,0.0348
23,CTGTCTTC,-0.161
24,CAAAGCAC,-0.122
25,ACTTCGGG,-0.134

row,Sequence,PBM E-score
1,AAAGTCCC,-0.165
2,GGGGATCA,-0.33
3,GATAGAGC,-0.0653
4,CGTGGGAA,-0.208
5,GTATTAAC,0.303
6,TGCCAAAA,-0.0739
7,AAAGTTCA,0.0418
8,ACTTTACG,0.138
9,AAATTATT,0.111
10,AAGTAGAC,-0.161
11,CCCGAATA,-0.0992
12,GGGCTTGA,-0.21
13,CCAATTGC,-0.0845
14,ACACAGGG,0.213
15,TTCAACAA,0.229
16,CCAACTAG,0.0134
17,GCCGAACA,-0.0546
18,CATGGCAA,-0.0714
19,AACCTGAA,-0.0539
20,TGCTGTAA,0.176
21,CAAGACGA,0.00326
22,CTGGCGGC,-0.179
23,ACGTTGAT,0.203
24,AGTGTGCA,0.0627
25,GTAGCGTA,0.105

row,Sequence,PBM E-score
1,ATCGCTCA,-0.264
2,ATTCGATG,-0.0704
3,ATGACATA,0.197
4,CCGACCGG,-0.28
5,CGATGCAA,-0.2
6,ATTTGAGC,-0.0824
7,ACAGCCCA,-0.0365
8,CATAGGTA,0.227
9,AAGAACAC,0.213
10,AAATTGTG,0.119
11,AAGGCTGA,-0.222
12,ACCGAACT,-0.17
13,CTGGTTTC,-0.18
14,AGCACAAC,0.183
15,AGATGCAG,-0.0299
16,AATTATCT,-0.0807
17,CTCTTATA,-0.039
18,TCAATGGA,-0.13
19,ATACTTTG,-0.0228
20,GGTCGTGA,-0.173
21,GAGAACCC,-0.275
22,GACCCCAC,-0.0508
